In PubChem BioAssay (NCATS):
Where “and” joins values, the source holds several entries; their conditions need not be identical. Equal entries are not always repeated. The inconclusive results got no clear call from the source; some entries with a clear call stand among them for comparison. A potency beside an inconclusive call is a rough fit, not a confirmed value. Calls of active or inactive are those of the source. Unless noted, calls come from the whole dose curve; as a rule, active = well fitted curve in the direction sought with a large enough effect; inconclusive = small, poorly fitted or top-dose-only effect, or another doubt; inactive = no such curve, though single readings can be large; an effect the other way counts as inactive or inconclusive.

How the values were obtained:
[1] = qHTS of pediatric cancer cell lines to identify multiple opportunities for drug repurposing: Primary screen for NB-EBc1 cells (AID 1347095)
Outline: (§1)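 CRCs from 8- or 11-point titrations (lowest final 0.59 nM NPC, 0.78 nM MIPE). Cell viability: CellTiter-Glo after 48 h incubation, 15 min room-temperature development, luminescence imaging.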

[2] = qHTS of pediatric cancer cell lines to identify multiple opportunities for drug repurposing: Primary screen for Saos-2 cells (AID 1347097); conditions: Saos-2 viability, CellTiter-Glo ATP luminescence, 48 h; activity change, negative = cytotoxic: at 46 µM (top of the series); note: nearly all actives have a fitted effect of over 40% in size
Outline: as §1

[3] = qHTS of pediatric cancer cell lines to identify multiple opportunities for drug repurposing: Primary screen for BT-12 cells (AID 1347101); note: nearly all actives have a fitted effect of over 25% in size
Outline: (§2)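 Cells (500-1,000/well) rested 5 h, then received compounds for 48 h; metabolically active cells were measured by CellTiter-Glo luminescence. Final concentrations spanned up to 46 µM (MIPE, 11-point) or 0.59 nM-46 µM (NPC, 8-point) in primary screens, 11-point in follow-ups.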

[4] = qHTS of pediatric cancer cell lines to identify multiple opportunities for drug repurposing: Primary screen for OHS-50 cells (AID 1347103); note: nearly all actives have a fitted effect of over 40% in size
Outline: as §2

[5] = Primary qHTS for small molecule stabilizers of the endoplasmic reticulum resident proteome: Secreted ER Calcium Modulated Protein (SERCaMP) assay (AID 1508630); conditions: SH-SY5Y GLuc-SERCaMP (Gaussia luciferase released on ER calcium loss) secretion, thapsigargin, luminescence; series mostly up to 38.4 µM
Outline: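 GLuc-SERCaMP-expressing SH-SY5Y cells, pretreated 16 h with compound, are challenged with thapsigargin to empty ER calcium stores; after 4 h, coelenterazine is added directly to the medium and luminescence is imaged.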

[6] = Primary qHTS for inhibitors of nuclear receptor binding SET domain protein 2 (NSD2) in an isogenic RCH-ACV NSD2 p.E1099K mutant (9B) (AID 1645876); note: nearly all actives have a fitted effect of over 70% in size
[7] = Primary qHTS for inhibitors of nuclear receptor binding SET domain protein 2 (NSD2) in an RCH-ACV wild type WT cells (2C) (AID 1645877); conditions: activity change, negative = cell killing: at 44.9 µM (top of the series); note: nearly all actives have a fitted effect of over 70% in size
[8] = tested on: HEK293; test: Cytotoxic Profiling of Annotated Libraries Using Quantitative High-Throughput Screening (AID 1296008); conditions: Five cell lines viability, CellTiter-Glo ATP luminescence, 48-72 h; max response: active compounds read low; note: nearly all actives have a fitted effect of over 60% in size
Outline: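 Compounds were pin-transferred onto cells and incubated 48 or 72 hr at 37 degree Celsius, 95% humidity. CellTiter-Glo was added, plates sat 10 min at room temperature, then ATP-coupled luminescence was imaged as the viability read-out.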

[9] = tested on: OV90; test: Primary qHTS to identify gynecologic anti-cancer compounds using libraries of approved drugs and bioactive compounds (AID 1345084); conditions: Gynecologic cancer cell panel viability, ATPlite luminescence, 48 h; series mostly up to 57.5 µM; note: nearly all actives have a fitted effect of over 55% in size
Outline: (§3)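 Luminescence from the ATPlite ATP-monitoring reagent indicates viable cell number; lower signal means cytotoxicity. Cells received compound 16 h after seeding and were exposed for 48 h across five concentrations.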

[10] = tested on: SKOV3; test: as above; conditions: Gynecologic cancer cell panel viability, ATPlite luminescence, 48 h; series mostly up to 57.5 µM
Outline: as §3

[11] = qHTS of pediatric cancer cell lines to identify multiple opportunities for drug repurposing: Primary screen for SK-N-MC cells (AID 1347093); conditions: SK-N-MC viability, CellTiter-Glo luminescence, 48 h; activity change, negative = cytotoxic: at 46 µM (top of the series)
Outline: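 Metabolically active cells were quantified by ATP-dependent luminescence (CellTiter-Glo, 15 min at room temperature) following 48 h treatment. Cells had been plated at 500-1,000 per well and settled for 5 h beforehand.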

[12] = A High-Content qHTS Against Drug Library for the Identification of Small Molecules that Inhibit DYT1 Early Onset Primary Dystonia-Associated Cell Pathology (AID 1645839; calls by dose curve)
Outline: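 Readout: %pathology, the punctate EGFP-TorsinA distribution from imaging, as the primary channel and cell count as the toxicity counterscreen. HEK293 Flp-In cells expressing delE TorsinA were induced with tetracycline and treated with compound for 48 h.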

[13] = tested on: MKL-2; test: qHTS assay to identify novel small-molecules to repurpose for Merkel cell carcinoma treatment (AID 1296009); conditions: MCC and control cell lines, CellTiter-Glo viability, 72 h; series mostly up to 46 µM; note: nearly all actives have a fitted effect of over 60% in size
Outline: (§4)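 Cells exposed to NPC (8-point) and MIPE (11-point) compound dilutions for 72 hr at 37 degree celsius; viability read by CellTiter-Glo luminescence, normalized to no-cell and DMSO in-plate controls.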

[14] = tested on: WaGa; test: as above; conditions: MCC and control cell lines, CellTiter-Glo viability, 72 h; series mostly up to 46 µM
Outline: as §4

[15] = Drug repurposing screens with cells derived from glioblastoma tumor samples (AID 1345199); conditions: GBM patient neurospheres viability, ATP luminescence, 48 h; Potency: tumour line A unless noted; series mostly up to 46 µM; note: nearly all actives have a fitted effect of over 40% in size
Outline: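 Four patient lines of CD133+ GBM neurospheres were screened at several concentrations; hits were retested in those lines plus three slower-growing GBM lines, using 48-hour treatment and ATP-based viability.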

[16] = P-glycoprotein substrates identified in KB-8-5-11 adenocarcinoma cell line, qHTS therapeutic library screen (AID 1346987); note: nearly all actives have a fitted effect of over 65% in size
Outline: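 KB-8-5-11: colchicine-selected sub-line of KB-3-1 over-expressing P-gp; assay medium lacked colchicine. 72 h drug exposure at 37 degree C, CellTiter-Glo.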

[17] = qHTS of pediatric cancer cell lines to identify multiple opportunities for drug repurposing: Primary screen for SK-N-SH cells (AID 1347098); conditions: SK-N-SH viability, CellTiter-Glo luminescence, 48 h; activity change, negative = cytotoxic: at 57 µM (top of the series); note: nearly all actives have a fitted effect of over 65% in size;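 for activity change, negative = cytotoxic: DMSO served as neutral control and bortezomib at 2.3 µM as positive control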
Outline: as §2

Measured: Potency
Potency is the fitted concentration of half-maximal effect; tags give direction and shape of the fitted curve.

CCc1cc(Cl)c(OC)c(C(=O)NC[C@@H]2CCCN2CC)c1O
inconclusive: [4] 24.6 µM [cytotoxic, partial curve, poor fit] | [5] 31.6 µM [inhibitor, single point] | [6] 26.6 µM [inhibitor, single point] | [7] 29.9 µM [inhibitor, partial curve, poor fit] | [8] 29.9 µM [inhibitor, single point]
inactive: [1] | [2] | [3] | [9] | [10]

CN(C)CCCN1c2ccccc2CCc2ccccc21
inconclusive: [11] 23.7 µM [cytotoxic, partial curve, poor fit] | [3] 38.9 µM [cytotoxic, single point] | [5] 22.4 µM [inhibitor, partial curve, poor fit] and 2.82 µM [inhibitor, full curve, poor fit] | [12] 14.1 µM [inhibitor, single point] | [13] 33.5 µM [inhibitor, single point] | [9] 25.1 µM [cytotoxic, single point] | [10] 39.8 µM [cytotoxic, single point]
active: [8] 13.3 µM | [14] 23.7 µM | [15] 4.47 µM

CC(=O)OC/C=C(C)/C=C/C=C(C)/C=C/C1=C(C)CCCC1(C)C
inactive: [4]
inconclusive: [11] 29.9 µM [cytotoxic, single point] | [3] 15.5 µM [cytotoxic, partial curve, poor fit] | [5] 12.6 µM [inhibitor, partial curve, poor fit] | [6] 26.6 µM [inhibitor, single point] | [7] 33.5 µM [inhibitor, single point] | [8] 33.5 µM [inhibitor, single point] | [14] 26.6 µM [inhibitor, single point] | [15] 20 µM [inhibitor, partial curve]
active: [13] 3.76 µM

Cc1nc2sccn2c(=O)c1CCN1CCC(=C(c2ccc(F)cc2)c2ccc(F)cc2)CC1
active: [4] 27.6 µM
inconclusive: [16] 13 µM [inhibitor, partial curve, poor fit] | [1] 33.5 µM [cytotoxic, partial curve, poor fit] | [2] 33.5 µM [cytotoxic, single point] | [17] 38.6 µM [cytotoxic, single point] | [3] 17.4 µM [cytotoxic, partial curve] | [5] 22.4 µM [inhibitor, partial curve, poor fit] and 22.4 µM [inhibitor, single point] and 10 µM [inhibitor, partial curve, poor fit] | [12] 22.4 µM [inhibitor, single point] | [6] 29.9 µM [inhibitor, single point] | [7] 29.9 µM [inhibitor, single point] | [8] 29.9 µM [inhibitor, single point] | [13] 21.1 µM [inhibitor, single point] | [14] 15 µM [inhibitor, partial curve, poor fit] | [9] 39.8 µM [cytotoxic, single point]

CN[C@H]1CC[C@@H](c2ccc(Cl)c(Cl)c2)c2ccccc21
inactive: [5]
inconclusive: [16] 20.6 µM [inhibitor, single point] | [1] 21.1 µM [cytotoxic, single point] | [12] 17.8 µM [inhibitor, partial curve, poor fit] | [8] 0.299 µM [inhibitor, full curve, poor fit] | [14] 26.6 µM [inhibitor, single point] | [9] 39.8 µM [cytotoxic, partial curve, poor fit]
active: [2] 23.7 µM | [3] 21.9 µM | [4] 15.5 µM | [6] 6.68 µM and 9.34 µM | [13] 8.41 µM | [10] 28.2 µM | [15] 2.24 µM

CC1=C(C)C(=O)C(CCCCC#CCCCC#CCO)=C(C)C1=O
inactive: [1] | [17] | [12] | [9]
active: [6] 18.8 µM | [8] 16.8 µM | [13] 26.6 µM | [14] 21.1 µM
inconclusive: [16] 23.1 µM [inhibitor, single point] | [2] 26.6 µM [cytotoxic, single point] | [3] 21.9 µM [cytotoxic, partial curve, poor fit] | [5] 25.1 µM [inhibitor, single point]
